Source: the supplement of paper PMC11369174, “Proteome-scale characterisation of motif-based interactome rewiring by disease mutations” (Molecular Systems Biology, 2024)
Some of the results follow. Single values of this set are uncertain.

Molecular target: ABL1_SH3__P00519_60_121
Test: mutation enrichment score (mutant vs wild-type peptide binding to bait); baits are purified protein domains named by gene / domain / UniProt id / residues; peptides come from disordered regions of human proteins; higher = mutation enhances binding relative to wild type
Settings: number of wild-type / mutant comparisons summed (bounds the score): 6; paper call: diminished; wild-type window: …

ABL1_SH3__P00519_60_121, sequence (chain, as listed by the source): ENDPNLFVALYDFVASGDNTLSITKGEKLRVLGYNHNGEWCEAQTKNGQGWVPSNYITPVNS

Row | Binder | mutation enrichment score
1 | PPHLLSCWLPPFPSGPPIIPLPPPICPDSLDDADALGSMLI [P245L P245L] | -6

Same assay, conditions: number of wild-type / mutant comparisons summed (bounds the score): 6; paper call: enhanced; wild-type window: …

Row | Binder | mutation enrichment score
2 | PEKPERTPWMQSPRFSPPPASRLSPPACTLRKHKTNRKPRT [R157S R157S] | 6
3 | GDNAHTIKYCPLSKVPPPPAYPPPRSARDGPPGKKLR [R276Y R276Y] | 6

Molecular target: Intersectin-1_SH3_2_Q15811_913_971
Test: as above
Settings: number of wild-type / mutant comparisons summed (bounds the score): 6; paper call: no_effect; wild-type window: …

Row | Binder | mutation enrichment score
4 | GDNAHTIKYCPLSKVPPPPAYPPPRSARDGPPGKKLR [R276Y R276Y] | 2
5 | SLDQKKRGGHKACCLLTPPPQPLFPPPFFRGGRSPLLSPDM [P59Q P59Q] | -1.3

Molecular target: ABL1_SH3__P00519_60_121
Test: as above
Settings: number of wild-type / mutant comparisons summed (bounds the score): 6; paper call: no_effect; wild-type window: …

Row | Binder | mutation enrichment score
6 | PKPRERPQIGGTIKQPPSNPQPRPPAEARKKPSEEEAAVAA [P156Q P156Q] | -5
7 | PSFTMANNLPMQPPVPSQTSAYSCMLPTSPSVNGRSYDTYT [S353A S353A] | -0.71
8 | GGPWGGAAYPPPPSMPPIGLGNVATYAGQFNQDYLSGMAAN [D40G D40G] | 1
9 | PGGGPWGGAAYPPPPSMPPIRLDNVATYAGQFNQDYLSGMA [G38R G38R] | 5.7
10 | AAFKPEAYAGPEAAAPGLPEPRAELGRAPSPAKCASAFPAA [L69P L69P] | 3
11 | LPSARPLSLDGADSAPPPPASSAPPPHHSQGFSVDNIMTSL [P297S P297S] | -3.2
12 | VLLTPPTPLPPPSPPPTASDKGLATPSPSPCPVPRPLAALK [R86K R86K] | -4
13 | MPRGSRSAASRPASRPAAPSCHPPAHPPPSAAAPA [R15C R15C] | -2
14 | MPRGSRSAASRPASRPAAPSGHPPAHPPPSAAAPA [R15G R15G] | -2
15 | MPRGSRSAASRPASRPAAPSLHPPAHPPPSAAAPA [R15L R15L] | -2
16 | MPRGSRSAASRPASRPAAPSSHPPAHPPPSAAAPA [R15S R15S] | -2
17 | GKGTPLGTPATSPPPAPLCHLDDYVHISLPQATVTPPRKEE [S403L S403L] | 4
18 | DATAPAWPPPGEDPGTTPPGYSVPVPATELGSTELVTTKTA [H159Y H159Y] | 5
19 | APLSAPLSAPQAVHCPSIIWKAPKGQPPVPHEIPTSMEFQE [Q588K Q588K] | -0.16
20 | SLDQKKRGGHKACCLLTPPPQPLFPPPFFRGGRSPLLSPDM [P59Q P59Q] | -5
21 | SAVLATAPRIDDEIPPPLPVWTPESFIVVEEAGEFSPNVPK [R620W R620W] | 0.66
22 | RSPPEEPPDFCCPKCQYQAPVMDTLQIHVMECIE [D406V D406V] | 3.5

Molecular target: FKBP1A_full-length__P62942_1_108, P62942
Test: as above
Settings: number of wild-type / mutant comparisons summed (bounds the score): 6; paper call: no_effect; wild-type window: …

FKBP1A_full-length__P62942_1_108, P62942, sequence (P62942 whole entry): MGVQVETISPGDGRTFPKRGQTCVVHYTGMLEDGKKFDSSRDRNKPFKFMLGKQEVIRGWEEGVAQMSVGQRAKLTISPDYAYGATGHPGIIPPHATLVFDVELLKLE

Row | Binder | mutation enrichment score
23 | PGGGPWGGAAYPPPPSMPPIRLDNVATYAGQFNQDYLSGMA [G38R G38R] | 2

Molecular target: GABARAPL1_ATG8__Q9H0R8_2_115
Test: as above
Settings: number of wild-type / mutant comparisons summed (bounds the score): 12; paper call: no_effect; wild-type window: …

Row | Binder | mutation enrichment score
24 | GKGTPLGTPATSPPPAPLCHLDDYVHISLPQATVTPPRKEE [S403L S403L] | -2.8
25 | SAVLATAPRIDDEIPPPLPVWTPESFIVVEEAGEFSPNVPK [R620W R620W] | 4.9

Molecular target: GABARAPL2_ATG8__P60520_2_115
Test: as above
Settings: number of wild-type / mutant comparisons summed (bounds the score): 12; paper call: no_effect; wild-type window: …

GABARAPL2_ATG8__P60520_2_115, sequence (chain, as listed by the source): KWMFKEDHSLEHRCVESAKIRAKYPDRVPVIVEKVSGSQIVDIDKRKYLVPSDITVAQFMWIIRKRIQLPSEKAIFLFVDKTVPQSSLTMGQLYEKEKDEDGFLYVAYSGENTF

Row | Binder | mutation enrichment score
26 | GKGTPLGTPATSPPPAPLCHLDDYVHISLPQATVTPPRKEE [S403L S403L] | 2.5

Molecular target: GABARAP_ATG8__O95166_2_115
Test: as above
Settings: number of wild-type / mutant comparisons summed (bounds the score): 12; paper call: no_effect; wild-type window: …

GABARAP_ATG8__O95166_2_115, sequence (chain, as listed by the source): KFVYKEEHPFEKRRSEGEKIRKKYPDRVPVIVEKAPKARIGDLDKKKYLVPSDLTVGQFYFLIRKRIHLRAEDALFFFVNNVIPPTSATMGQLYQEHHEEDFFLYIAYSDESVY

Row | Binder | mutation enrichment score
27 | GKGTPLGTPATSPPPAPLCHLDDYVHISLPQATVTPPRKEE [S403L S403L] | -1.2

Molecular target: MAP1LC3A_ATG8__Q9H492_2_121
Test: as above
Settings: number of wild-type / mutant comparisons summed (bounds the score): 12; paper call: no_effect; wild-type window: …

Row | Binder | mutation enrichment score
28 | GKGTPLGTPATSPPPAPLCHLDDYVHISLPQATVTPPRKEE [S403L S403L] | 3.4

Molecular target: MAP1LC3B_ATG8__Q9GZQ8_2_119
Test: as above
Settings: number of wild-type / mutant comparisons summed (bounds the score): 12; paper call: no_effect; wild-type window: …

Row | Binder | mutation enrichment score
29 | GKGTPLGTPATSPPPAPLCHLDDYVHISLPQATVTPPRKEE [S403L S403L] | 0.58

Molecular target: GABARAPL2_ATG8__P60520_2_115
Test: as above
Settings: number of wild-type / mutant comparisons summed (bounds the score): 6; paper call: no_effect; wild-type window: …

Row | Binder | mutation enrichment score
30 | SAVLATAPRIDDEIPPPLPVWTPESFIVVEEAGEFSPNVPK [R620W R620W] | 3

Molecular target: GABARAP_ATG8__O95166_2_115
Test: as above
Settings: number of wild-type / mutant comparisons summed (bounds the score): 6; paper call: no_effect; wild-type window: …

Row | Binder | mutation enrichment score
31 | SAVLATAPRIDDEIPPPLPVWTPESFIVVEEAGEFSPNVPK [R620W R620W] | 3

Molecular target: Intersectin-1_SH3_1_Q15811_740_806
Test: as above
Settings: number of wild-type / mutant comparisons summed (bounds the score): 6; paper call: diminished; wild-type window: …

Row | Binder | mutation enrichment score
32 | SAVLATAPRIDDEIPPPLPVWTPESFIVVEEAGEFSPNVPK [R620W R620W] | -6

Molecular target: Intersectin-1_SH3_3_Q15811_1002_1060
Test: as above
Settings: number of wild-type / mutant comparisons summed (bounds the score): 12; paper call: diminished; wild-type window: …

Row | Binder | mutation enrichment score
33 | SAVLATAPRIDDEIPPPLPVWTPESFIVVEEAGEFSPNVPK [R620W R620W] | -8

Molecular target: Intersectin-1_SH3_5_Q15811_1155_1214
Test: as above
Settings: number of wild-type / mutant comparisons summed (bounds the score): 6; paper call: diminished; wild-type window: …

Row | Binder | mutation enrichment score
34 | SAVLATAPRIDDEIPPPLPVWTPESFIVVEEAGEFSPNVPK [R620W R620W] | -6

Molecular target: NCK1_SH3_1_P16333_5_60
Test: as above
Settings: number of wild-type / mutant comparisons summed (bounds the score): 6; paper call: no_effect; wild-type window: …

Row | Binder | mutation enrichment score
35 | SAVLATAPRIDDEIPPPLPVWTPESFIVVEEAGEFSPNVPK [R620W R620W] | 3.4

Molecular target: Src_SH3__P12931_87_144
Test: as above
Settings: number of wild-type / mutant comparisons summed (bounds the score): 12; paper call: no_effect; wild-type window: …

Row | Binder | mutation enrichment score
36 | SAVLATAPRIDDEIPPPLPVWTPESFIVVEEAGEFSPNVPK [R620W R620W] | -4.8
